Assay results reported in the supplement of paper PMC11417369.
± gives the standard deviation of the averaged measurements. Some of the results follow.

System: PfAP2-EXP AP2 domain (GST-tagged)
Experiment: gcPBM binding intensity (ln(normalized median fluorescence intensity)); higher = stronger DNA binding
Summary of the method: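 The highest Masliner-normalised natural-log median intensity across replicate spots of either probe orientation is reported as binding intensity. GST-tagged P. falciparum DNA-binding domains expressed in E. coli were applied for 1 h to an Agilent 4 × 180k array of primer-extended double-stranded 36-bp intergenic genomic probes plus negative controls, and bound protein was detected with Alexa488 anti-GST antibody and scanned at 488 nm.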

Going from “ATTTATTTTTTGTGTTCACACATTAGTATCATCTAT [CACACA_site5274]” to “CACATAAAAAAATAAACACACATATGTATATATATA [CACACA_site3177]”, the “gcPBM binding intensity (ln)” value rises from 8.62 ± 0.42 to 9.215 ± 0.007.

First: ATTTTTCTAAAATACTGTACAAAGGTGCATAAAAAG [XGTACX_site4425]
Second: TCTAATGATATATACACACACATATAGATTTATATA [CACACA_site7044]
The “gcPBM binding intensity (ln)” value of the first is higher: 9.98 ± 0.61 for the first, 8.32 ± 0.38 for the second.

“TTTTCTGTTTTCATTACACACCTTACAAGAACAATA [CACACA_site2158]” and “ATATTTATGGAATATACACACATGTATAATTATATA [CACACA_site2033]” are within error of each other in “gcPBM binding intensity (ln)” value: 8.66 ± 0.19 for the first, 8.36 ± 0.37 for the second.

First: AAATAAGAAAAAGCGCGTACACATAACATTTTTATA [XGTACX_site8807]
Second: TGCTTTTCTTTTTGCACACTTATGCATATATATATA [CACACA_site2583]
The “gcPBM binding intensity (ln)” value of the first is lower: 8.69 ± 0.29 for the first, 9.95 ± 0.13 for the second.

TTTATTCAAGGAATAGTGCATAATAATAAGTATTAT and TGTATTCTCTTAGTAGTGCATTTGAAGATTATATAA are within error of each other in “gcPBM binding intensity (ln)” value: 8.39 ± 0.27 for the first, 8.8 ± 0.16 for the second.

Going from “ATTTTTTTTTTTTTTTCATGAAATTTTTTTTTTTTT [CACACA_negctrl_site1069]” to “ATATATTTATTATTAGGTACACATATATATATATAT [XGTACX_site5045]”, the “gcPBM binding intensity (ln)” value rises from 8.26 ± 0.58 to 10.2 ± 0.54.

“TTAAAAAAAAATAAAGGTACACGGAGAAATCCTTTT [XGTACX_site7509]” and “TTATATAGAATTAATTTCTTTTTTTTCTTTTTTAAA [CACACA_negctrl_site1308]” are within error of each other in “gcPBM binding intensity (ln)” value: 8.39 ± 0.43 for the first, 8.12 ± 0.55 for the second.

“TGTAGTAATGCTTATTGTACATATACATTTCTTACA [XGTACX_site219]” and “AACCACCACACCATCACACATAAGATTAGACGAGTA [CACACA_site6063]” are within error of each other in “gcPBM binding intensity (ln)” value: 8.55 ± 0.32 for the first, 8.46 ± 0.54 for the second.

“TATTATATATATGGAAGTACAGGTATATCGTTTTTC [XGTACX_site3771]” and “TTTTTTTTTCGCTTTTGTACACATTTTATAGAACAG [XGTACX_site2416]” are within error of each other in “gcPBM binding intensity (ln)” value: 8.62 ± 0.42 for the first, 8.87 ± 0.46 for the second.

“TTTTCCCTTAACCTCTGTACATATAATTTTCTTTCC [XGTACX_site4180]” and “AAATATTTTTTAATTGTTCACTTGGTGGATCATTAA [CACACA_negctrl_site922]” are within error of each other in “gcPBM binding intensity (ln)” value: 8.98 ± 0.52 for the first, 8.28 ± 0.28 for the second.

“TATCCATTATTTAAAAGTACAAAAAACGATTTACAC [XGTACX_site2979]” and “AAGAATTATATATTCACACAAAAAAAAAGTAAAAGA [CACACA_site5335]” are within error of each other in “gcPBM binding intensity (ln)” value: 8.66 ± 0.37 for the first, 8.69 ± 0.46 for the second.

“TTTTAACATAGAAGTACACACATATAATCAATCATA [CACACA_site5313]” and “AAAAAAAAAAAAAAGAGTACATTTATTTATATATCT [XGTACX_site2381]” are within error of each other in “gcPBM binding intensity (ln)” value: 8.59 ± 0.4 for the first, 8.23 ± 0.19 for the second.

“TGTTTAACACATGTTTCAAACAAAAAAAAAAAGACA [CACACA_negctrl_site1356]” and “AATATATTAAATCTTACACACTAAAAAATATGTAAC [CACACA_site4325]” are within error of each other in “gcPBM binding intensity (ln)” value: 8.63 ± 0.59 for the first, 8.26 ± 0.35 for the second.

“TATAATATATATATATGTACATATTATTTACATATA [XGTACX_site7312]” and “TTTTAAATTTTTTAAAGTACACGTCGAAAAGGTATA [XGTACX_site76]” are within error of each other in “gcPBM binding intensity (ln)” value: 8.4 ± 0.28 for the first, 8.99 ± 0.32 for the second.

“TTAATTTTTGAAGGTACACACTAATATATTAAATAT [CACACA_site4791]” and “AAAATGAAACAAATATGTACACATATAAATATTTCC [XGTACX_site54]” are within error of each other in “gcPBM binding intensity (ln)” value: 8.63 ± 0.21 for the first, 8.22 ± 0.35 for the second.

Going from “TTATCCCCCTATCATTGTACATTAATACAAACTAAA [XGTACX_site5630]” to “CTTTTAATTATAAAATGTACTTAAAAATAATAATAC [XGTACX_site635]”, the “gcPBM binding intensity (ln)” value falls from 9.95 ± 0.4 to 8.43 ± 0.26.

First: AAAACAGACAAACACACACACACATATATATATATA [CACACA_site3393]
Second: ATATTTGTAATTATTAAACACACACTAATTATATAT [CACACA_site8803]
The “gcPBM binding intensity (ln)” value of the first is higher: 10.1 ± 0.49 for the first, 8.52 ± 0.45 for the second.

“ATAAAGAAAATATGGAGTACATTTATATCCAATATA [XGTACX_site3085]” and “TTTTATGAAAAATGGCTTATCTGTAAAGAAGTGGAG [CACACA_negctrl_site1586]” are within error of each other in “gcPBM binding intensity (ln)” value: 8.43 ± 0.4 for the first, 8.73 ± 0.39 for the second.

“AAATATATACTACCGATGCACTAAATATAAACACAT [GTGCAC_site9777]” and “TTATCATTTGGACACGCACACACACCGAAAAAGAAA [CACACA_site8008]” are within error of each other in “gcPBM binding intensity (ln)” value: 8.76 ± 0.18 for the first, 8.99 ± 0.65 for the second.

“AATAATTTAAGGAATACACACAAGAAAAAAATAAGA [CACACA_site60]” and “TTTTTTGCTAAAAAGAGTACTAATAAAAAATTTATT [XGTACX_site5235]” are within error of each other in “gcPBM binding intensity (ln)” value: 9.07 ± 0.51 for the first, 8.34 ± 0.34 for the second.

First: TTTTTGTAATTATATTAATATATATATATATATATA [CACACA_negctrl_site198]
Second: GAAAACATTAAAAGTTAGATCATAAGAAAAGAATAT [GTGCAC_negctrl_site726]
The “gcPBM binding intensity (ln)” value of the first is higher: 9.9 ± 0.26 for the first, 8.74 ± 0.42 for the second.

“CATATATGTGATAACACGCACACAAATGTATAGAAT [CACACA_site2594]” and “ACATTATATAAAATATGTACATATAAAAAATTCTAT [XGTACX_site1617]” are within error of each other in “gcPBM binding intensity (ln)” value: 8.78 ± 0.44 for the first, 8.74 ± 0.26 for the second.

“GTTCATCACATATACACATGCATATTCTAATATGTA [TGCATGCA_site809]” was tested, and the “gcPBM binding intensity (ln)” value was 9.03 ± 0.35.
